Results: PubChem BioAssay AID624417 (National Center for Advancing Translational Sciences (NCATS), 2012)
Among all 410,000 compounds or so, about 6,400 (1.6%) were called active. This list was built around the results that the source calls inconclusive (neither active nor inactive); the mix of calls is not that of the screen. Calls follow the shape of the dose curve; as a rule, active = well fitted inhibition curve with a large enough effect; inconclusive = small, poorly fitted or top-dose-only effect; inactive = no such curve, though single readings can be large or run the other way. Potencies of inconclusive entries are left out as doubtful fits.

Biological target: Glucagon-like peptide 1 receptor (Homo sapiens) (UniProt P43220)
Experiment: qHTS of GLP-1 Receptor Inverse Agonists (Inhibition Mode); also: nearly all actives have a fitted effect of over 55% in size
Settings: HEK293 GLP-1R CRE-luciferase, luminescence, 24 h, GLP-1R form is constitutively active; series mostly up to 38.3 µM
Outline: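 Inverse agonists were sought by their lowering of basal cAMP reporter luciferase output in HEK293 cells stably carrying constitutively active human GLP-1R, after 24 h compound treatment.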
Potency is read from the fitted curve at half-maximal effect; tags tell the direction and shape of the fitted curve.

Sequence of UniProt P43220 (P43220 whole entry, looked up): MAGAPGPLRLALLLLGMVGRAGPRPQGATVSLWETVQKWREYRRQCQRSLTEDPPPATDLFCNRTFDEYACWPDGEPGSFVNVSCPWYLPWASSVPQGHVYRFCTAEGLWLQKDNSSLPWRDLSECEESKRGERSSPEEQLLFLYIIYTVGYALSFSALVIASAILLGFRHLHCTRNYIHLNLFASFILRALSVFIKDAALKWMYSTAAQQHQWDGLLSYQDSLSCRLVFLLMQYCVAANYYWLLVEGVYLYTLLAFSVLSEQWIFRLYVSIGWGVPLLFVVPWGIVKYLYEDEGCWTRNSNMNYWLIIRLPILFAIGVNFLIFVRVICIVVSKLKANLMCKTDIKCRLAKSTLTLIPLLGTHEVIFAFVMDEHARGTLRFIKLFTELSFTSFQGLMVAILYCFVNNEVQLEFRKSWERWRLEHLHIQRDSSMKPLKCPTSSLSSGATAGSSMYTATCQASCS

Row | SMILES | Potency
1 | O=C(NCc1ccccc1)c1ccc(Cl)c(S(=O)(=O)N2CCCC2)c1 | inconclusive [inhibitor, single point]
2 | CCn1cc(S(=O)(=O)c2ccccc2)c(=O)c2cc(F)c(N3CCCC3)cc21 | inactive
3 | CCOC(=O)c1c(C)[nH]c(C(=O)COC(=O)c2ccc(O)cc2)c1C | inconclusive [inhibitor, single point]
4 | Cc1ccccc1CSCCNC(=O)CSCc1ccc([N+](=O)[O-])cc1 | inconclusive [inhibitor, single point]
5 | Cc1ccc(S(=O)(=O)N2[C@@H](c3ccccc3)C(C(=O)O)=CC[C@H]2c2ccc(Cl)c(Cl)c2)cc1 | inconclusive [inhibitor, partial curve]
6 | CCOC(=O)c1sc(NC(=S)NC(=O)CC(C)C)cc1C | active: 10 µM
7 | CCCCOc1ccc(CNC(=S)N/N=C/c2ccc(OC)c(OC)c2)cc1 | inconclusive [inhibitor, partial curve]
8 | Cc1ccc(C)c(C2=CSC3=NCCN23)c1 | inconclusive [inhibitor, single point]
9 | Cc1ccc(NC(=O)CN(C)CC(=O)Nc2c(C)cccc2C)c(Br)c1 | inconclusive [inhibitor, single point]
10 | Cc1nn(-c2ccccc2)c(N2CCCC2)c1/C=N/NC(=O)c1cc2ccccc2cc1O | inconclusive [inhibitor, partial curve]
11 | C=CCn1c(SCC(=O)Nc2ccccc2CC)nnc1-c1ccncc1 | inconclusive [inhibitor, single point]
12 | Cc1ccc(CNC(=O)CCc2c(C)nc3nc(C)nn3c2C)cc1 | inactive
13 | COc1cc2c(cc1OC)C(C)N(C(=O)c1ccc(Cl)c(S(=O)(=O)N3CCCCC3)c1)CC2 (centres undefined) | inconclusive [inhibitor, partial curve, poor fit]
14 | COc1ccccc1N1CC(C)(C)C(=O)N(C(=O)c2ccc(C)cc2)C1=S | inconclusive [inhibitor, single point]
15 | COc1ccc(O)c(/C=N/NC(=O)c2ccc(OCc3cccc(Br)c3)cc2)c1 | inactive
16 | Cc1cc(Br)cn2c(Cc3ccccc3)c(-c3ccccc3)nc12 | inconclusive [inhibitor, single point]
17 | Cc1ccc(C)c(S(=O)(=O)N2CCN(C(=O)CCC(=O)c3cc(C)sc3C)CC2)c1 | inconclusive [inhibitor, partial curve, poor fit]
18 | COc1cc(C)c(CN2CCN(S(=O)(=O)c3ccc(Cl)s3)CC2)cc1OC | inconclusive [inhibitor, single point]
19 | Cc1c(C(=O)NCCCN2CCCCC2)oc2ccc3c(c12)C(O)CC1(CCCCC1)O3 (centres undefined) | inconclusive [inhibitor, full curve, poor fit]
20 | CCN(CC)Cc1cc(Nc2c3ccccc3nc3c4ccccc4n(C)c23)cc(CN(CC)CC)c1O | inconclusive [inhibitor, single point]

Row | SMILES | Potency
21 | Cc1ccc([C@@H]2CC=C(C(=O)O)[C@H](c3ccc(F)cc3)N2S(=O)(=O)c2ccccc2C)cc1 | inconclusive [inhibitor, single point]
22 | Cc1ccc(S(=O)(=O)N(CC(=O)Nc2cccc(N(C)S(C)(=O)=O)c2)c2ccc(Cl)c(Cl)c2)cc1 | inconclusive [inhibitor, partial curve, poor fit]
23 | O=C(NC(=S)N1CCN(c2ccc(F)cc2)CC1)c1cccs1 | inconclusive [inhibitor, full curve, poor fit]
24 | CC(C)NC(=O)c1ccc(-c2ccc(F)c(F)c2)c2ccoc12 | inconclusive [inhibitor, single point]
25 | COc1ccc(C(=O)Oc2cccc3cccnc23)cc1[N+](=O)[O-] | inconclusive [inhibitor, full curve, poor fit]
26 | Cc1ccc(NC(=O)CCCn2c(=O)c3cccn3c3ccccc32)cc1C | inactive
27 | C=CCN(C(=O)c1csnn1)C(C(=O)NCc1ccc(F)cc1)c1sccc1C (centres undefined) | inconclusive [inhibitor, partial curve, poor fit]
28 | C/C(=N/NS(=O)(=O)c1ccc(Cl)cc1)c1cccc(NC(=O)c2ccc(Cl)cc2Cl)c1 | inconclusive [inhibitor, single point]
29 | COc1ccc(S(=O)(=O)N(C)c2ccc(C(=O)N3CCCCC3)cc2)cc1OC | inactive
30 | CC1CN(S(=O)(=O)c2cccc(C(=O)NCCC3=CCCCC3)c2)CC(C)O1 (centres undefined) | inconclusive [inhibitor, single point]
31 | O=c1oc2ccccc2n1Cc1cccc(F)c1 | inconclusive [inhibitor, partial curve, poor fit]
32 | COc1ccc(/C=N/N(c2ccccc2)c2ccccc2)cc1O | inconclusive [inhibitor, single point]
33 | O=C(Cc1ccc(F)cc1)Nc1ccc(S(=O)(=O)N2CCCC2)cc1 | inconclusive [inhibitor, single point]
34 | O=C(CCNC(=O)c1ccc([N+](=O)[O-])cc1)NC1CCCc2ccccc21 (centres undefined) | inconclusive [inhibitor, partial curve]
35 | CCOC(=O)C(C)(C)N(Cc1ccccc1C)S(=O)(=O)c1ccc(Cl)c([N+](=O)[O-])c1 | inconclusive [inhibitor, single point]
36 | O=C(CN1CCOCC1)N/N=C/c1c(O)ccc2ccccc12 | inconclusive [inhibitor, single point]
37 | CC(C)(C)c1ccc(C(=O)NCCc2csc(-c3ccc(Cl)cc3)n2)cc1 | active: 10 µM
38 | Cc1ccc(CN2C(=O)S/C(=C\c3ccccc3OCC(=O)O)C2=O)cc1 | inconclusive [inhibitor, single point]
39 | COc1ccc(-c2cc(C)no2)cc1S(=O)(=O)N(C)c1ccc(C)cc1 | inconclusive [inhibitor, partial curve, poor fit]
